Data on 22 molecules can be found in paper PMC12136788.

To fix the notation:
T1: UNK ZnF1-3 (human, UniProt Q9C0B0 31-174)
T1 sequence: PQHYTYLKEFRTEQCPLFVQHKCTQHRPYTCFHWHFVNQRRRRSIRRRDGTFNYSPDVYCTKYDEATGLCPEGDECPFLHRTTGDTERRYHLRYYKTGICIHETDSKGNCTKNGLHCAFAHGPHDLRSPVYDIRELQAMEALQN

B1: chr4:140556289:140556290:+_ENSMUSG00000036622_ENSMUST00000037055|mus_mus|mus_mus_mus_hu_False|58_88 (ssRNA)
RNA: GGGAGUUCUACAGUCCGACGAUCGAUGGAGCUCACCAGGCCCCCUUUGGCUGUGCAGAACCCUGUGCGGGUCACCACUGCUAGCACGUGCGGUCCCACAUAGGCCCGGGCCUGCAAGAUGAGGGUCCCGCAGAAGAGUGUGUGCAACAGAGGAUUGAGCAUCA
B2: chr15:96521860:96521861:-_ENSMUSG00000022462_ENSMUST00000023099|mus_hu|motif|central (ssRNA)
RNA: GGGAGUUCUACAGUCCGACGAUCGAAAUCUUUUGAUGCACACAACAAGUGAGUUACAGAACUCCGGAUUGGGAAAAUAACGGCUGGUACUGUCAGGGUCACAGCCAUUAACACAGCCAGACGGACAAUGAGAAGAAGAAUAUCCAACAGAGGAUUGAGCAUCA
B3: chr15:58009597:58009598:+_ENSG00000255529_ENST00000299638|hu_hu|motif|central (ssRNA)
RNA: GGGAGUUCUACAGUCCGACGAUCGUGUCAAGAGGGGACACACAGAGAUUUUGGAGUGCUGGCAAGACCUCCUCUGCAUCGGGUUUGUGAUUACACAGCUGUUGCUUUACCCAUUAAGCUCUGUUUUAAGUACUUAUUUGUAAGCAACAGAGGAUUGAGCAUCA
B4: chr1:163112212:163112213:-_ENSG00000143248_ENST00000313961|hu_hu|hu_hu_hu_mus_False|88_98 (ssRNA)
RNA: GGGAGUUCUACAGUCCGACGAUCUUUUAUUAUCAGUAAGCAUGAGUCACAUAGUACGCAAAGUAUUGGAUACAAUAAUCAGGAAACAAACACUAUUGGUCCAGAAUUUAAAACUUUAUGAGCGAAGUGCUGGCACAGGACUUACAACAGAGGAUUGAGCAUCA
B5: chr7:44244176:44244177:+_ENSG00000106636_ENST00000223369|hu_mus|hu_hu_hu_mus_False|78_98 (ssRNA)
RNA: GGGAGUUCUACAGUCCGACGAUCACUGUCGCUCCGGACGUAGACGUGGCAAAGAUAGUCUUGUUCUUUGACAGAAGCUCUGCUGCCUUUCCCCGAGCGUUCCACAAUCAGUUGACUUGUAAAGGUCAUGAAUUCCUGCACACUCAACAGAGGAUUGAGCAUCA
B6: chr17:60770872:60770873:+_ENSG00000011028_ENST00000303375|hu_hu|hu_hu_hu_mus_True|38_58 (ssRNA)
RNA: GGGAGUUCUACAGUCCGACGAUCUCUUUAAAAAAAAAAAAAAAAAGACAAACAAUAAUAGCACAUUUCGAGAAUCAUCAACUACAGUAGAGGGUCCAUGUCUUCGAUUUGUUCACAUCGUCCUGCACUGGGACACGGGGACUGCAACAGAGGAUUGAGCAUCA
B7: 107048236_107050550_205_CDS_ENSMUSG00000018433_ENSMUST00000018577|mouse|control|control (ssRNA)
RNA: GGGAGUUCUACAGUCCGACGAUCCUUGUAAAGGACGACGGUCCUGCCGCUGUCCGUCACUAGGAACUGGUCGGCUUUGUCAGUCUGCUCUACACCUAGGAAUCCCUCAGGCCCGGCGCCUAAGACUCCAGUAGACAACGUGAACAACAGAGGAUUGAGCAUCA
B8: 44567007_44567127_516_3pUTR_ENSMUSG00000032096_ENSMUST00000034607|mouse|control|control (ssRNA)
RNA: GGGAGUUCUACAGUCCGACGAUCCUGUAAAGGUUCUGAUCUGUGCCAGGUUAACAUUCUCCCGGUAUCCCAGGGCAACAAUUUCAUCAAAAGCAAAAAUCAAAUCAAAACAGUGCUCAGAUAUUUCAUUUUCCUCUAAGGCUCCAACAGAGGAUUGAGCAUCA
B9: chrX:103214973:103214974:+_ENSMUSG00000031231_ENSMUST00000033582|mus_mus|FALSE|FALSE (ssRNA)
RNA: GGGAGUUCUACAGUCCGACGAUCAGAAACACAGAAGAUGGCUCCACCUGCUAAUAUAGCAUUCCCAUAUUUGUCAUGGAAACUAGGUGCCCUCUUCUGGUGGCUCUGCCUUGCCACCACUUGCUGAAUGCUUCGAACUUGGAGCAACAGAGGAUUGAGCAUCA
B10: 58471268_58471476_997_ncRNA_ENSMUSG00000026034_ENSMUST00000148330|mouse|control|control (ssRNA)
RNA: GGGAGUUCUACAGUCCGACGAUCUGUUCAUCAUCAUAUGUUGCACUUCCAAAGUCCACCACUUUAAUAUCUGGAUUUACUAUAGUACGUUCAUCACGUUUCAUUUUGGGAUUAUAAGCCUCUGUGUAGUCAGACUUCACAAAUCAACAGAGGAUUGAGCAUCA
B11: chr1:75533408:75533409:+_ENSMUSG00000026213_ENSMUST00000113553|mus_mus|FALSE|FALSE (ssRNA)
RNA: GGGAGUUCUACAGUCCGACGAUCACUUUGGGAAGAGGGGAAGUUCACAACUUUUUCACAAUUGGUGGCUCACGCCAUUAAUCUCAACACUUAGAAGGCAGAGGUAGGCAGGUCUCCAUGAGUUCAAGGCCAGCCUGGUCUACACAACAGAGGAUUGAGCAUCA
B12: 76075535_76079160_4048_CDS_ENSG00000078687_ENST00000588847|human|control|control (ssRNA)
RNA: GGGAGUUCUACAGUCCGACGAUCUUUUGCUGCAAACUGCAAAAGCUGUGCUUGAACCUGAGGGGAUAGAAACUGAGGCACUUGAGCACGGAGACUGGGCUGGGAAGAGUUAAGAGGCUGCACUGGUGGCUGUGGCGGCUGCUGCAACAGAGGAUUGAGCAUCA
B13: chr7:141445308:141445309:+_ENSG00000106028_ENST00000265304|hu_hu|hu_hu_hu_mus_False|58_88 (ssRNA)
RNA: GGGAGUUCUACAGUCCGACGAUCUAUGAUUGUUGUUGCUUGCCGCCUCACAUUAUUUUUAUCCAUGUACUCGCCAUAGUCUAUUUUCCCUUCCACAAAUAUACGAGCCCCCUUUUUCACAUACUGAUAUGCCACAUCUCUGAGCAACAGAGGAUUGAGCAUCA
B14: chr1:169080634:169080635:+_ENSG00000143153_ENST00000367816|hu_mus|FALSE|FALSE (ssRNA)
RNA: GGGAGUUCUACAGUCCGACGAUCGGUUAGCAGCAUUACUUGGAUGGUCCCGAUGAAGAUGCCAGCCAGGCAGCCAUAAAAUAUCACGUAGAACAGAAGGAUCUUAAACCAACUACCACCGGUCCUGCCCAAAAACUCCUUCUUCAACAGAGGAUUGAGCAUCA
B15: chr6:40197388:40197389:+_ENSMUSG00000057716_ENSMUST00000061740|mus_mus|mus_mus_mus_hu_False|18_108 (ssRNA)
RNA: GGGAGUUCUACAGUCCGACGAUCGAGUUGUCAGUUUGGAUUUAUUCCACCUCUGUUUGGGUGCUAGCCACUAAGACUGUUAUUUUGGGAUUCAUGGCCUUGAAUAUCAAGAGGGAAGGGACGAGAAUGGAAAGAGUCAAGAGUCAACAGAGGAUUGAGCAUCA
B16: 21654947_21657548_106_5pUTR_ENSMUSG00000028252_ENSMUST00000108240|mouse|control|control (ssRNA)
RNA: GGGAGUUCUACAGUCCGACGAUCGCAAAUAGUGGGAGCUCUGCCAGAAGUUCCCUGCCAUGGAAUAAUACUGCUUGCCCUGAUACAAAUGCACCAGCCAGCAAAGCGGCCCGCGGAGCGACCAUAGACACAGUCCGGACGACUCAACAGAGGAUUGAGCAUCA
B17: chr15:90999404:90999405:+_ENSG00000140575_ENST00000268182|hu_hu|motif|central (ssRNA)
RNA: GGGAGUUCUACAGUCCGACGAUCCUGCAGAGUCUUUUGGGCAUCACCUUCAUCCAGGGCUUCAUUAAUUAAACCAAUGGCGGAAAUCCUCUCAUGUUCCUCUUGCACCACCAGGUUCACAUGGUCCACGCAAGCUUGGAUAUCCAACAGAGGAUUGAGCAUCA
B18: chr10:121586544:121586545:+_ENSG00000198825_ENST00000369080|hu_hu|FALSE|FALSE (ssRNA)
RNA: GGGAGUUCUACAGUCCGACGAUCCCGACUGCCCAAUCGAGGCGCUGAGGCAAUAAUACCACAACUAGGAAGAACGUAAUCUAUUGGCCCUACACUCUCUAAUGAGUUAGCUAGCUGCCUGUCUUCAUCAGACUUAGAAUUUGUCAACAGAGGAUUGAGCAUCA
B19: chr10:33214929:33214930:-_ENSG00000150093_ENST00000302278|hu_hu|hu_hu_hu_mus_True|8_28 (ssRNA)
RNA: GGGAGUUCUACAGUCCGACGAUCAACAAGUUCAUUGAAAAACUCUCCUCUGUCAGUAAGACUAAGCACAUUUUUGUAGCUAAAUGGGCUGGUGCAGUUUUGUUCACUUGUGCAAGGAUUUCUUAGCUUAGCUGGUGUUGUGCUCAACAGAGGAUUGAGCAUCA
B20: chr2:216981417:216981418:+_ENSG00000079246_ENST00000392132|hu_hu|hu_hu_hu_mus_True|88_98 (ssRNA)
RNA: GGGAGUUCUACAGUCCGACGAUCCUGAUACUGGUCCCCACCAGAAAGGGGAUUGUCAGUGCCAUCUGUGCCAUAGAGGACUAACGCAAUCUCAUCUUUGCUCUCCGAAAAUACCUGUCGUUGGACAAACAUAGUCAUCACUUUCAACAGAGGAUUGAGCAUCA
B21: 71052489_71058091_572_3pUTR_ENSG00000133997_ENST00000430055|human|control|control (ssRNA)
RNA: GGGAGUUCUACAGUCCGACGAUCCCAGGCUUUAGCUGCACAAAUUUGGGUGGAAAUUUUUGUCUGAGGUCUAAAAGUAAAGCAUCCACACGUUGUCUCUGAAAAAUAGAGCUUGGUUCUUCUUUCCUUUUGGCUUUAGGUCUGCAACAGAGGAUUGAGCAUCA
B22: chr15:41988372:41988373:+_ENSG00000174197_ENST00000570161|hu_mus|FALSE|FALSE (ssRNA)
RNA: GGGAGUUCUACAGUCCGACGAUCUGUCUCUUCUUGUUUCACUGUUAUCCCUUCUGGGCAUUCACCAAGUUCAUAAUCAUAAUCAUCUAGAGGCUCUUCUUUAAUGACGACAUUAAAGUUUCCAUUCGGGUUUGAUGGUGAGGACAACAGAGGAUUGAGCAUCA

This is one part of the list.

The test concerns the target T1, UNK ZnF1-3. Description: nsRBNS (natural sequence RNA bind-n-seq); RBNS binding buffer (assumed for nsRBNS): 25 mM Tris pH 7.5, 150 mM KCl, 3 mM MgCl2, 0.01% Triton X-100, 500 ug/ml BSA, 20 U/ml SUPERase-In, 4 C; UNK is unkempt and MSI1 is Musashi-1; names of the RNAs are library labels; protein concentration not given here; high values mean tight binding.
For the molecule B1, the binding signal is 1.67 enrichment R.
As to B2, the binding signal is 0.983 enrichment R.
As for B3, the binding signal turned out to be 1.13 enrichment R.
Turning to B4, the binding signal is 1.51 enrichment R.
B5 registered a binding signal of 0.796 enrichment R.
For B6, the binding signal came to 2.45 enrichment R.
On to B7, for which the binding signal was determined as 0.615 enrichment R.
As to B8, the binding signal came to 1.17 enrichment R.
Molecule B9 had a binding signal of 1.09 enrichment R.
As to B10, the binding signal was 0.599 enrichment R.
In turn, B11 came in with a binding signal of 1.37 enrichment R.
Consider B12, for which the binding signal came to 2.44 enrichment R.
For B13, the binding signal turned out to be 0.668 enrichment R.
The value for B14 was 1.59 enrichment R; that for B15 was 1.5 enrichment R.
B16 returned a binding signal of 1.58 enrichment R.
In turn, B17 returned a binding signal of 1.59 enrichment R.
Take B18: the binding signal was determined as 1.14 enrichment R.
For the molecule B19, the binding signal came out at 0.944 enrichment R.
Next, B20: 0.813 enrichment R.
B21 had a binding signal of 0.865 enrichment R.
Consider B22, for which the binding signal was 0.872 enrichment R.
